The whole screen tested about 370,000 compounds, of which about 150 (0.041%) were called active. The inconclusive results got no clear call from the source; some entries with a clear call stand among them for comparison. Calls come from the whole dose curve; as a rule, active = well fitted inhibition curve with a large enough effect; inconclusive = small, poorly fitted or top-dose-only effect; inactive = flat fitted curve, though single readings scatter. No potency is given beside an inconclusive call; the fits are too rough.
biological target: Beta-lactamase (Escherichia coli (strain K12)) (UniProt P00811); assay: qHTS Inhibitors of AmpC Beta-Lactamase (assay with detergent); conditions: AmpC hydrolysis of nitrocefin, absorbance 480 nm, 0.01% Triton; series mostly up to 114 µM; note: nearly all actives have a fitted effect of over 25% in size
Sequence of UniProt P00811 (P00811 whole entry, looked up): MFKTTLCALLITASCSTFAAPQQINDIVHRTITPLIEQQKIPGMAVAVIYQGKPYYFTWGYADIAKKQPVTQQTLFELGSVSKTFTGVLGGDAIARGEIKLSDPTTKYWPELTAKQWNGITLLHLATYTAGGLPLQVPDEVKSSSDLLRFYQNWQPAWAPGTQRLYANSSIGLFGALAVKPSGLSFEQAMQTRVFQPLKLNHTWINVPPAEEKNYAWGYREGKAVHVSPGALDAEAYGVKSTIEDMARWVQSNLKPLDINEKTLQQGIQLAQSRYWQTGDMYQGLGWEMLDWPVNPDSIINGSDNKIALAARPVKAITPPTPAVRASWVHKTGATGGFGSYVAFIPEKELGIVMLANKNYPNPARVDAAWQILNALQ
Summary of the method: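 20 mM phosphate pH 7.0 + 0.01% (detergent screen) or 0.0001% Triton X-100; 5.3 nM AmpC reagent; cpd preinc 15 min RT; nitrocefin (800 uM stock) to start; A480 q20 s × 4 min; Activity was normalised to no-enzyme and no-compound control wells.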
Potency is the fitted concentration of half-maximal effect; tags give direction and shape of the fitted curve.

SMILES	Potency
Cc1nc2ccc3nc(NC(=O)c4ccc5c(c4)OCCO5)sc3c2s1	inactive
CC(C)CCNC(=O)Cn1cc2c(n1)CCCCC2	inconclusive [inhibitor, full curve, poor fit]
O=C(CCN1C(=O)c2ccccc2C1=O)Nc1sc2c(c1C(=O)NCc1ccco1)CCCC2	inconclusive [inhibitor, partial curve, poor fit]
Cc1nc2cc(NC(=O)N3CCC(c4ccccc4)C3)ccc2n1C (stereo not given)	inconclusive [inhibitor, full curve, poor fit]
CCOC(=O)c1cnc(SC)nc1Oc1cccc(NC(=O)c2ccc(Cl)cc2)c1	inconclusive [inhibitor, single point]
Cc1cc(-c2ccc(N=Nc3c(S(=O)(=O)O)cc4cc(S(=O)(=O)O)cc(N)c4c3O)c(C)c2)ccc1N=Nc1c(S(=O)(=O)O)cc2cc(S(=O)(=O)O)cc(N)c2c1O	active: 12.6 µM
CN(CCOc1ccccc1)C(=O)c1ccc(Cl)c(S(=O)(=O)N2CCCCC2)c1	inconclusive [inhibitor, full curve, poor fit]
CCCN1CCC(NC(=O)CC2C(=O)NCCN2Cc2cccc(OC)c2)CC1 (stereo not given)	inactive
Cc1ccc(C(=O)c2ccccc2C(=O)OCC(=O)NCCc2ccc(Cl)cc2Cl)cc1	inactive
COc1ccc(NS(=O)(=O)c2ccc(C)c(C(=O)OC(C)C(=O)N3CCOCC3)c2)cc1 (stereo not given)	inconclusive [inhibitor, partial curve, poor fit]
O=C(c1ccccc1)N1CCN(CC#CC2(O)CCCCC2)CC1	inconclusive [inhibitor, partial curve, poor fit]
CCc1nnc(NS(=O)(=O)c2ccc(NC(=S)NC(=O)c3ccc(Br)cc3)cc2)s1	inconclusive [inhibitor, partial curve, poor fit]
COc1ccc(C)cc1NC(=O)C(c1ccccc1)N1CCNC(=O)C1 (stereo not given)	inconclusive [inhibitor, full curve, poor fit]
CC(NCc1ccccc1O)C12CC3CC(CC(C3)C1)C2 (stereo not given)	inactive
CCOC(=O)c1ccc(N2C(=O)c3n[nH]c(C)c3C2c2ccc(OC)cc2)cc1 (stereo not given)	inconclusive [inhibitor, partial curve, poor fit]
Cc1ccc(/C=C2\C(=N)N3N=C(CC(=O)N4CCCCC4)SC3=NC2=O)cc1	inconclusive [inhibitor, full curve, poor fit]
Brc1cccc(-c2nnc3sc(CNC4CCCC4)cn23)c1	inconclusive [inhibitor, full curve, poor fit]
CCCCN1CCN=C1Nc1ccccc1	inconclusive [inhibitor, full curve]
COc1ccccc1OCCCn1cc(C(C)=O)c2ccccc21	inconclusive [inhibitor, partial curve]
COC(=O)c1[nH]c2ccc(F)cc2c1NC(=O)Nc1ccc(OC)cc1	inconclusive [inhibitor, single point]
Cc1ccc2c(Cl)c(C(=O)Nc3ccc4c(c3)OCO4)sc2c1	inactive
CC(=O)N(CCCc1ccc(C(C)(C)C)cc1)CCCN(C)C	inconclusive [inhibitor, partial curve, poor fit]
Cn1c(N)c(C(=O)COC(=O)CNS(=O)(=O)c2ccc(Cl)c(Cl)c2)c(=O)n(C)c1=O	inconclusive [inhibitor, partial curve, poor fit]
COc1ccc(Cl)c(N2CCN(CCCNC(=O)Nc3ccc(C)cc3)CC2)c1	inconclusive [inhibitor, single point]

SMILES	Potency
Cc1ccc2c(c1)C(=O)CCN2	inactive
Cc1ccc2cc(NC(=O)c3cccc(F)c3)ccc2n1	inactive
COc1ccc(OC)c(Nc2nc(N)nc(CSc3nnc(N)s3)n2)c1	inactive
CCOC(=O)c1c(C)[nH]c(C)c1C(=O)COc1ccc(NC(=O)c2ccco2)cc1	inactive
O=C(CSc1n[nH]c(=O)n1C1CC1)c1ccc2c(c1)OCCO2	inactive
COc1cc(OC)c(OC)cc1CNCCNC(=O)c1nonc1N	inconclusive [inhibitor, full curve, poor fit]
Nn1c(-c2ccco2)n[nH]c1=S	inactive
CCOc1ccc(/C(O)=C2/C(=O)C(=O)N(CCCN3CCOCC3)C2c2ccc(F)cc2)cc1C (stereo not given)	inactive
Cc1cnc(Nc2nc3ccccc3o2)nc1C(=O)Nc1cccc(C(F)(F)F)c1	inactive
N#CC1CN(Cc2ccccc2)CN(Cc2ccccc2)C1	inactive
CCOC(=O)C1CCN(c2c(NCCCN(C)C3CCCCC3)c(=O)c2=O)CC1	inconclusive [inhibitor, full curve, poor fit]
CCCNC(=O)C1(S(=O)(=O)c2ccccc2)CC=CC1	inactive
O=C(CSc1ncnc2ccccc12)Nc1cccc(S(=O)(=O)N2CCOCC2)c1	inconclusive [inhibitor, partial curve, poor fit]
O=C(NCCCN=C1NS(=O)(=O)c2ccccc21)c1ccc(S(=O)(=O)N2CCOCC2)cc1	inconclusive [inhibitor, full curve, poor fit]
COc1cccc(C2c3[nH]c4ccccc4c3C[C@H]3C(=O)N(C4CCN(Cc5ccccc5)CC4)CC(=O)N23)c1 (stereo not given in full)	inactive
O=C(Nc1sc2c(c1C(=O)NCc1ccccc1)CCCC2)c1cc(=O)c2cc(Cl)ccc2o1	inactive
COc1cc(C(=S)N2CCOCC2)ccc1OS(=O)(=O)c1ccccc1[N+](=O)[O-]	inactive
O=c1c2[nH]c3ccc(F)cc3c2ncn1C1CCCCC1	inconclusive [inhibitor, full curve, poor fit]
COc1cc2c(cc1NC(=O)c1cccc(F)c1)CCCC2	inactive
COc1cccc(C(C(=O)NC2CCCC2)N(C(=O)c2ccco2)c2ccc(C(C)=O)cc2)c1OC (stereo not given)	inactive
CC(C)NC[C@@H](O)COc1cccc2ccccc12	inconclusive [inhibitor, partial curve, poor fit]
O=C(O)CCC(=O)Nc1ccc(OCC2CCCO2)cc1 (stereo not given)	inconclusive [inhibitor, partial curve, poor fit]
CCCCOc1ccc(C(=O)NCC(=O)NC2CCC(C)CC2)cc1 (stereo not given)	inconclusive [inhibitor, full curve]
COc1ccc(Cl)cc1NC(=S)NCCc1ccc(F)cc1	inconclusive [inhibitor, full curve]

SMILES	Potency
Cc1nc2ccccc2n1S(=O)(=O)c1ccc(S(=O)(=O)N2CCCCCC2)cc1	inconclusive [inhibitor, partial curve, poor fit]
Cc1cc2ccccn2c1C(=O)c1ccc(NN)c([N+](=O)[O-])c1	inactive
COC(=O)c1ccccc1NCc1cc(=O)oc2cc(O)c(O)cc12	inactive
Cc1cccc(NC(=O)c2ccc(-c3ccccc3[N+](=O)[O-])o2)c1	inactive
COc1cc(SC)ccc1C(=O)Nc1ccon1	inactive
CN(Cc1c(C(=O)N/N=C/c2cccc(Cl)c2)nnn1-c1nonc1N)c1ccccc1	inactive
CNC(=O)/C=C1\NC(C)(C)Cc2c1ccc1ccccc21	inactive
COc1cc(/C=C2/NC(=O)N(Cc3ccccc3F)C2=O)cc(OC)c1OC	inconclusive [inhibitor, single point]
CCN(CC)CCN1C(=O)C(=O)/C(=C(/O)c2c(C)[nH]c(C(=O)OC)c2C)C1c1ccc(OC)cc1 (stereo not given)	inconclusive [inhibitor, partial curve, poor fit]
O=[N+]([O-])c1ccc2[nH]cc(S(=O)(=O)N3CCN(c4cccc(Cl)c4)CC3)c2c1	inconclusive [inhibitor, partial curve, poor fit]
CCN(CCO)c1ccc(N=Nc2cc(C)[nH]n2)cc1	inactive
C/C(=N\NC(=O)c1cc(C2CC2)nc2ccccc12)c1ccc(O)cc1O	inconclusive [inhibitor, full curve, poor fit]
Cc1cccc(NC(=S)NCCO)c1C	inconclusive [inhibitor, full curve, poor fit]
O=C(COC(=O)c1ccccc1NC(=O)C1CC1)c1ccc2c(c1)OCCO2	inconclusive [inhibitor, full curve, poor fit]
O=C(NC1CCN(S(=O)(=O)c2ccccc2)CC1)C1CCCCC1	inactive
COc1ccc(CCNC(=O)COC(=O)C2CCCCC2)cc1	inconclusive [inhibitor, full curve, poor fit]
CC1=C(C(=O)NCCc2ccc(Cl)cc2)C2(CCCCC2)OC1=O	inactive
O=C(NC(NC(=S)Nc1cccc(C(=O)O)c1)C(Cl)(Cl)Cl)OCc1ccccc1 (stereo not given)	inactive
COCCn1c(SCC(=O)N2CCC(C)CC2)nc2ccccc2c1=O	inconclusive [inhibitor, full curve, poor fit]
COc1cccc(-c2cc(C(=O)N3CCOCC3)no2)c1	inconclusive [inhibitor, partial curve, poor fit]
CC1=NN(C(=O)c2ccc(Cn3nc(C)c([N+](=O)[O-])c3C)o2)C(O)(C(F)(F)F)C1 (stereo not given)	inconclusive [inhibitor, full curve, poor fit]
COc1ccc(N2CCN(c3nc4c(c(=O)n(C)c(=O)n4C)n3Cc3ccccc3)CC2)cc1	inconclusive [inhibitor, full curve]

From PubChem BioAssay AID485294 (National Center for Advancing Translational Sciences (NCATS), 2010)
